Reference: PubChem BioAssay AID1347073 (National Center for Advancing Translational Sciences (NCATS), 2019)
The campaign covered roughly 45,000 compounds. About 200 (0.44%) were called active. About 7% were inconclusive and are not listed. The call rests on the fitted dose curve; in most records, active means well fitted activation curve with a large enough effect; inconclusive means small, poorly fitted or top-dose-only effect; inactive means no such curve, though single readings can be large or run the other way. The list shows a part of the results.

Assay: qHTS of TDP-43 Inhibitors: NCGC Sytravon Library Screen; further: 0% is about no effect; nearly all actives have a fitted effect of over 55% in size
Conditions: yeast TDP-43 toxicity rescue, BacTiter-Glo growth, 24 h; series mostly up to 46.1 µM; growth rescue (activation): at the top concentration
In short: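 TDP-43-expressing yeast, pregrown in raffinose, seeded at OD600 0.02 in galactose medium with compound for 24 hr at 30 deg C. Growth read by BacTiter-Glo luminescence, so rescue of toxicity appears as activation.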

SMILES	growth rescue (activation)
CCN1/C(=C/c2ccc3ccccc3[n+]2CCCS(=O)(=O)[O-])C=Cc2cc(C)ccc21	inactive: -29%
CCCCc1c(C)nc2ccc(C(=O)OCC)cc2c1Cl	inactive: 21.1%
O=C(CCCNC(=O)c1ccc(Cl)cc1)Nc1cccc(F)c1	inactive: 12.4%
COCOc1cccc(CN2CCC2(C)C(=O)NCCNC(C)=O)c1 (stereo not drawn)	inactive: 2.86%
Cc1ccc(-n2c(-c3ccco3)n[nH]c2=S)cc1	inactive: 0.753%
CCC12CC3CC(C1)CC(C(=O)NNC(N)=O)(C3)C2	inactive: 5.65%
O=C(CN1CCN(C(=O)c2ccco2)CC1)Nc1ccccc1	inactive: 1.04%
CNc1c(NS(=O)(=O)c2cc(NC(C)=O)ccc2C)c(=O)oc2ccccc12	inactive: 6.21%
CCN1CCN(c2cc(N3CCN(C(=O)c4ccco4)CC3)c3c4c(onc24)-c2ccccc2C3=O)CC1	inactive: -12%
O=C(O)c1cccc(NC(=S)N/N=C/c2c[nH]c3ccccc23)c1	inactive: 9.9%
COc1ccc(Br)cc1CN1CCN(C(=O)c2cccc(F)c2)CC1	inactive: -11%
Cc1cccn2c1nc(=S)n2C(=O)c1ccco1	inactive: 4.05%
CCOC(=O)c1c(NC(=O)/C=C/c2ccc(OC)cc2)sc2c1CCC(C)C2 (stereo not drawn)	inactive: 1.47%
Cc1ccc(-c2csc(NC(=O)C[n+]3cc(-c4ccccc4)n4c3CCC4)n2)cc1	inactive: -28.3%
COc1ccccc1NS(=O)(=O)c1cc(N)ccc1N1CCCC1	inactive: 4.93%
Cc1cccc2[nH]c(CN(C)Cc3nc(CC4CC4)no3)nc12	inactive: 4.14%
FC(F)(F)c1cnc(C(c2ccccc2)c2ncn[nH]2)c(Cl)c1 (stereo not drawn)	inactive: 0.853%
COc1ccc(Cl)cc1C(=O)Nc1ccc(NC(C)=O)cc1	inactive: 13.6%
COCC(=O)Nc1cc([N+](=O)[O-])ccc1OC	inactive: -0.0743%
COc1ccc(NC(=O)CSc2nnnn2Cc2ccccc2)cc1	inactive: 11.6%
NS(=O)(=O)c1ccc(NC(=S)N2CCN(Cc3ccc(Cl)c(Cl)c3)CC2)cc1	inactive: -6.69%
N#CCC(=O)Nc1ccc(C(=O)OCC(=O)Nc2ccccc2Sc2ccccc2)cc1	inactive: 17.1%
COc1ccc(-c2nn(-c3ccccc3)cc2/C=C\C(=O)N2CCOCC2)cc1[N+](=O)[O-]	inactive: 12.8%
COc1ccc(CCCc2nnc(SCC(=O)NN)o2)c(C)c1	inactive: 9.27%
CCCn1c(=N)n(CC(=O)c2ccc(Cl)c(Cl)c2)c2ccccc21	inactive: 26.5%
COc1ccc(-c2[nH]ncc2C(=O)NCc2ccccc2OC)cc1	inactive: 6.42%
NC(=O)NC(c1ccc(Cl)cc1)c1ccccc1Cl (stereo not drawn)	inactive: 7.2%

SMILES	growth rescue (activation)
Cc1nc2ccc(NC(=S)N3CCN(c4ccccn4)CC3)cc2nc1C	inactive: 2.19%
CC(=O)Nc1ccc(S(=O)(=O)Nc2ccc3c(c2)n(C)c(=O)n3C)c(C)c1	inactive: 14.8%
COc1cccc(-c2cnc(C(O)c3ccc(SC)cc3)[nH]2)c1 (stereo not drawn)	inactive: 3.36%
O=C(COc1ccc(/C=N/NC(=O)CSCc2ccc([N+](=O)[O-])cc2)cc1)NCc1ccco1	inactive: -26.2%
COc1ccc(-n2nc(C(=O)NCc3cc(OC)ccc3OC)c3c4ccccc4n(C)c3c2=O)cc1	inactive: 5.82%
Cn1cc(C(=O)c2ccc(Cl)cc2Cl)cc1C(=O)O	inactive: 8.91%
COc1ccc(C2(c3ccc(OC)cc3)NC(=O)N(CC(=O)NC(C)C)C2=O)cc1	inactive: -2.44%
CC(=O)Oc1ccc(C(=O)Nc2cccc(C(=O)c3cccc(NC(=O)c4ccc(OC(C)=O)cc4)c3)c2)cc1	inactive: 11%
O=C(N/N=C/C1C(c2ccccc2)C1(Cl)Cl)c1cccc(Cl)c1 (stereo not drawn)	inactive: -5.08%
C/C(N)=C(/C#N)C(=O)CSc1nnc(-c2ccc(OC(F)F)cc2)o1	inactive: -16.7%
Cc1ccc(SCc2cn3cc(Cl)ccc3n2)cc1	inactive: 9.95%
COc1cccc(C(C(=O)NC(C)(C)C)N(CCC(C)C)C(=O)CCC(=O)Nc2cc(C)on2)c1OC (stereo not drawn)	inactive: -1.87%
Cc1ccc(NC(=O)C2CC(Cl)=CCC2C(=O)O)c([N+](=O)[O-])c1 (stereo not drawn)	inactive: -10.3%
CCCc1nnc(NC(=O)CS(=O)(=O)c2ccccc2)s1	inactive: 1.67%
COc1ccc(CNC(=O)CN2CCN(C(c3ccccc3)c3ccccc3)CC2)cc1	inactive: -1.74%
CCN(CC)S(=O)(=O)c1ccc(/C=C/C(=O)O)cc1	inactive: 4.08%
CCOc1ccc(C2NC(=O)NC(C)=C2[N+](=O)[O-])cc1OC (stereo not drawn)	inactive: 6.95%
CCOC(=O)C1=C(C)NC(=S)NC1C (stereo not drawn)	inactive: 14.2%
O=C(c1cc(=O)c2ccccc2o1)N1CCN(c2ccccc2)CC1	inactive: 32.5%
Cc1sc(NC(=S)NC(=O)c2ccco2)c(C#N)c1C	inactive: -4.44%
CCOC(=O)c1c(NC(=O)C2CC=CCC2C(=O)O)sc(C)c1CC (stereo not drawn)	inactive: 3.63%
O=C(COc1cccnc1[N+](=O)[O-])Nc1c(Cl)cccc1Cl	inactive: 9.28%
NC(=O)c1cccc(Nc2nc(C(N)Cc3ccc(C(F)(F)F)cc3)cs2)n1 (stereo not drawn)	inactive: 22.4%
CCCc1cc(C(=O)Nc2cc(C)ccc2O)no1	inactive: 5.25%
CCc1nn(C(C)C(=O)Nc2cccc(C)c2C)c(=O)c2cc3occc3n12 (stereo not drawn)	inactive: 34.7%
COCCCNS(=O)(=O)c1ccc2[nH]c(=O)[nH]c2c1	inactive: 7.11%
